Data reported in the supplement of paper PMC4166925.
± gives the standard deviation of the averaged measurements. In all, about 33,000 sequences were measured (“E-score (dimensionless, -0.5 to 0.5)”: median about -0.049, highest 2% from about 0.37 on). The list shows a part of the results.

test system: T1, PmTbr T-box DNA-binding domain (GST fusion); experiment: PBM E-score of 8-mer (E-score (dimensionless, -0.5 to 0.5)); Tbr is Tbrain of the sea star Patiria miniata (Pm) or the sea urchin Strongylocentrotus purpuratus (Sp); higher = stronger binding preference; most listed sequences are background and not binding sites; conditions: the construct has about 5 more residues each side
T1 sequence: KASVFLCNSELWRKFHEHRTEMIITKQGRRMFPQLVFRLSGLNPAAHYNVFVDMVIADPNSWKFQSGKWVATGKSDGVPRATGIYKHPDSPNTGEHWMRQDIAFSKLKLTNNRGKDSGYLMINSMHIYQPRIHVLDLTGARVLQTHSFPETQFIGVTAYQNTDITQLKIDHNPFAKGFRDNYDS
Method in brief: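 Expression of GST-fused Tbr T-box DNA-binding domains, each holding the full T-box plus roughly five flanking residues, was carried out in BL21 E. coli at 20 °C, with purification by glutathione affinity chromatography. Universal Agilent arrays made double-stranded by primer extension were incubated with the protein at 200 nM in PBS (pH 7.5), then scanned and quantified. All ungapped 8-mers were scored from probe intensities, and each received an enrichment E-score from the Universal PBM Analysis Suite, averaged over duplicate arrays.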

| Sequence | PBM E-score of 8-mer |
| --- | --- |
| AAAAACAA | -0.0813 ± 0.11 |
| GTACCGAA | -0.191 ± 0.013 |
| ACCGTACC | -0.141 ± 0.059 |
| CGCACCAA | 0.251 ± 0.04 |
| ACGAATTC | -0.0796 ± 0.024 |
| GGGATCGA | -0.211 ± 0.079 |
| CAGCCCCC | -0.176 ± 0.015 |
| CTGGGAGA | -0.0542 ± 0.0058 |
| AGCTGGGG | -0.131 ± 0.035 |
| CCCCCGGC | -0.16 ± 0.0058 |
| GATCCCGA | -0.207 ± 0.0067 |
| ATATGGAG | -0.218 ± 0.035 |
| GTAAGGCA | -0.306 ± 0.082 |
| AGGTCCCG | -0.213 ± 0.0028 |
| GTCCATCA | -0.167 ± 0.012 |
| CACGGCTG | 0.0955 ± 0.088 |
| AGTCAATG | -0.195 ± 0.041 |
| GATCGGGA | -0.223 ± 0.042 |
| CTAAATAG | -0.0726 ± 0.01 |
| CCTGTGTC | 0.0544 ± 0.035 |
| AGGGGAAG | -0.115 ± 0.073 |
| CGTAGTAC | -0.245 ± 0.039 |
| GCCTCCGA | -0.07549 ± 0.00067 |
| ATCAGCGC | 0.158 ± 0.022 |
| AGACACTG | -0.0402 ± 0.079 |

| Sequence | PBM E-score of 8-mer |
| --- | --- |
| CCGCTCAA | -0.213 ± 0.012 |
| CTGCATCA | -0.1 ± 0.077 |
| CCTACTTC | -0.254 ± 0.038 |
| AAAGGGGT | 0.0881 ± 0.091 |
| ATATACAC | 0.0813 ± 0.032 |
| AACAACGG | -0.0812 ± 0.055 |
| CCGGTCAA | -0.079 ± 0.068 |
| CGGCACCC | 0.221 ± 0.043 |
| CATCGCGA | 0.15 ± 0.043 |
| CAAGACTC | 0.012 ± 0.018 |
| AGCTCAAA | -0.0986 ± 0.042 |
| CGGTCAAA | -0.18 ± 0.0046 |
| GGAGGAAC | -0.022 ± 0.035 |
| ATAAGGCG | 0.186 ± 0.023 |
| ATCTCAAG | -0.208 ± 0.0073 |
| AGGCTTGA | -0.0666 ± 0.068 |
| CGACGTGA | 0.229 ± 0.014 |
| ATAGTTGC | 0.0442 ± 0.026 |
| CAGGTGGC | 0.364 ± 0.018 |
| CGTAGTCA | 0.0468 ± 0.00047 |
| TACAGAAA | -0.131 ± 0.037 |
| CGACCTCC | -0.154 ± 0.0068 |
| ACTTGAAT | -0.1055 ± 0.00061 |
| ACCAGCCG | 0.149 ± 0.013 |
| GAGGATAC | 0.0967 ± 0.07 |

| Sequence | PBM E-score of 8-mer |
| --- | --- |
| CCAGTTCA | -0.052 ± 0.044 |
| AATCATTA | -0.104 ± 0.081 |
| CCTCAGTA | -0.04691 ± 0.00039 |
| AGCATGGG | -0.218 ± 0.072 |
| GAATGAGA | -0.119 ± 0.047 |
| AATGTGCA | 0.0806 ± 0.0083 |
| AAGCAAGC | -0.157 ± 0.037 |
| GTAAATAC | -0.29 ± 0.0076 |
| AGTGAGCG | 0.0789 ± 0.034 |
| GGAGTGCA | -0.0921 ± 0.012 |
| TTGCGAAA | 0.349 ± 0.034 |
| AAGTTTCC | -0.0893 ± 0.047 |
| GAAAAGTA | -0.0794 ± 0.046 |
| AGAGCTAG | -0.242 ± 0.036 |
| CTAGAGGA | -0.214 ± 0.034 |
| GTAGTCAC | 0.137 ± 0.0086 |
| AAGGGGTG | 0.292 ± 0.038 |
| ACTTCGAT | 0.102 ± 0.024 |
| CGCTACTC | 0.1564 ± 0.0012 |
| AGTGTAGC | 0.137 ± 0.0081 |
| GCCTGCAA | -0.102 ± 0.041 |
| GATCTGCC | -0.041 ± 0.024 |
| AAAGAATC | 0.018 ± 0.044 |
| ACAGCAAT | 0.0583 ± 0.025 |
| GAGCAGCA | -0.1863 ± 0.0012 |

| Sequence | PBM E-score of 8-mer |
| --- | --- |
| CCGTTCCC | 0.0661 ± 0.053 |
| ATACGATC | -0.104 ± 0.058 |
| ACAAGTGG | 0.375 ± 0.017 |
| CGATGAAC | -0.0227 ± 0.068 |
| AGGCGGTC | 0.0247 ± 0.058 |
| CCTCGCGA | 0.281 ± 0.00058 |
| ATCCGTAC | -0.132 ± 0.052 |
| ACATGCAA | 0.00215 ± 0.018 |
| CTTAAACC | -0.167 ± 0.019 |
| GACAATCA | 0.102 ± 0.02 |
| CCTGTTTA | -0.126 ± 0.0022 |
| CACGTGGC | 0.244 ± 0.011 |
| CGAGTAAG | -0.0352 ± 0.022 |
| GGACCACC | -0.135 ± 0.064 |
| GGCCCACA | -0.0771 ± 0.055 |
| AGCTAGTA | -0.207 ± 0.037 |
| CTTCAAAC | 0.0284 ± 0.034 |
| GCGATGAA | 0.251 ± 0.023 |
| AGCTAGCT | 0.0796 ± 0.0065 |
| AGTATTTA | -0.144 ± 0.006 |
| CTGAAACA | -0.183 ± 0.022 |
| ATGGTAGA | -0.0338 ± 0.1 |
| AACACGGT | 0.133 ± 0.049 |
| GAGGAGGC | 0.0601 ± 0.015 |
| CTTTCTTC | -0.0736 ± 0.1 |

| Sequence | PBM E-score of 8-mer |
| --- | --- |
| CGATGTAG | -0.212 ± 0.04 |
| AACAAATT | 0.0401 ± 0.094 |
| GGAACATA | -0.215 ± 0.011 |
| CTAACGGA | 0.0817 ± 0.064 |
| AGAAATAC | -0.0878 ± 0.0053 |
| AGGATACG | 0.0582 ± 0.014 |
| CGAATGAG | -0.0849 ± 0.022 |
| ATTTTACG | -0.126 ± 0.049 |
| CCTCTAAC | -0.0816 ± 0.025 |
| GGCTAAAA | -0.22 ± 0.064 |
| ACTGACAT | 0.0983 ± 0.064 |
| ATAGATCC | -0.25 ± 0.031 |
| AGACGAGA | 0.0969 ± 0.0083 |
| TAATAACA | 0.119 ± 0.14 |
| GCCATGTA | -0.101 ± 0.045 |
| ACGATCCA | -0.237 ± 0.072 |
| CAGTAATC | 0.12 ± 0.012 |
| AGACAAAG | -0.0593 ± 0.018 |
| AACTTTAT | 0.00789 ± 0.075 |
| CCACTCCG | -0.01631 ± 0.00014 |
| CTTAGTCA | -0.148 ± 0.017 |
| AAGCTACG | -0.0856 ± 0.073 |
| GTATTGGA | -0.248 ± 0.035 |
| AAGGTTGG | -0.217 ± 0.13 |
| GATTGAGA | -0.185 ± 0.025 |

| Sequence | PBM E-score of 8-mer |
| --- | --- |
| GCATCGCA | 0.0234 ± 0.0033 |
| AATTAGAT | -0.172 ± 0.0059 |
| GCCGAAAC | -0.255 ± 0.019 |
| AACGATAC | -0.0172 ± 0.013 |
| GATAGTCC | -0.127 ± 0.061 |
| GCAATGCC | -0.133 ± 0.016 |
| CCACGTAA | -0.149 ± 0.068 |
| ATATTCAA | -0.197 ± 0.032 |
| GGACAAGA | -0.239 ± 0.035 |
| ACCGGATC | -0.144 ± 0.011 |
| GTCCCCCA | -0.019 ± 0.041 |
| CCTAAGAA | 0.016 ± 0.05 |
| TAACCCTA | -0.134 ± 0.032 |
| GCGTAGCA | 0.159 ± 0.013 |
| ACCGCCGT | -0.217 ± 0.0029 |
| TAGTTTAA | -0.117 ± 0.0079 |
| AACTCATT | -0.0513 ± 0.024 |
| CATGCATG | -0.173 ± 0.082 |
| AGTGGCCA | -0.022 ± 0.035 |
| AGTACCGG | -0.347 ± 0.02 |
| AGAATACC | -0.15 ± 0.046 |
| CTAAGTAG | -0.156 ± 0.051 |
| CGAGACTC | 0.0667 ± 0.093 |
| GAGGTCGC | 0.228 ± 0.035 |
| GACCGGGC | -0.0921 ± 0.02 |

| Sequence | PBM E-score of 8-mer |
| --- | --- |
| AATTACCA | 0.0867 ± 0.056 |
| GAATCGAC | 0.0766 ± 0.0047 |
| CTAACCTA | 0.0525 ± 0.04 |
| GAGACTGA | -0.017 ± 0.038 |
| GCCCATAA | -0.162 ± 0.027 |
| CGCTTACA | 0.0751 ± 0.065 |
| CTGTAGCC | -0.0966 ± 0.055 |
| TGTAGCAA | -0.0247 ± 0.024 |
| GCTCACCA | -0.0238 ± 0.034 |
| GGGCAGGA | -0.23 ± 0.033 |
| AAGCTTCC | -0.203 ± 0.04 |
| ATTATGTC | -0.151 ± 0.0087 |
| GCTCCCCA | -0.0445 ± 0.0037 |
| CTTGGGCA | -0.0563 ± 0.032 |
| AACGATTA | -0.0891 ± 0.098 |
| ATCGGCGA | -0.0552 ± 0.02 |
| ATACGTAT | -0.0177 ± 0.13 |
| ATAGATTC | -0.134 ± 0.0044 |
| ACCCTGCA | -0.101 ± 0.045 |
| CAACATGG | 0.0369 ± 0.033 |
| ATGGCACG | 0.189 ± 0.041 |
| GGGACGTA | -0.286 ± 0.12 |
